Source: PubChem BioAssay AID720709 (National Center for Advancing Translational Sciences (NCATS), 2013)
In all, about 360,000 compounds went through this assay and about 520 (0.14%) were called active. This list was built around the results that the source calls inconclusive (neither active nor inactive); the mix of calls is not that of the screen. The call rests on the fitted dose curve; in most records, active means well fitted inhibition curve with a large enough effect; inconclusive means small, poorly fitted or top-dose-only effect; inactive means no such curve, though single readings can be large or run the other way. No potency is given beside an inconclusive call; the fits are too rough.

Target: Rap guanine nucleotide exchange factor 3 (Homo sapiens) (UniProt O95398)
Assay: qHTS for Antagonist of cAMP-regulated guanine nucleotide exchange factor 3 (EPAC1): primary screen; further: nearly all actives have a fitted effect of over 50% in size;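 on activity change, negative = inhibition: plate controls were vehicle for no effect and positive control for full effect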
Conditions: EPAC1 GEF assay, Rap1b-BODIPY-GDP exchange fluorescence; activity change, negative = inhibition: at 115 µM (top of the series)
Potency means the concentration at half of the fitted maximal effect; tags describe the fitted curve by direction and shape.

Sequence of UniProt O95398 (O95398 whole entry, looked up): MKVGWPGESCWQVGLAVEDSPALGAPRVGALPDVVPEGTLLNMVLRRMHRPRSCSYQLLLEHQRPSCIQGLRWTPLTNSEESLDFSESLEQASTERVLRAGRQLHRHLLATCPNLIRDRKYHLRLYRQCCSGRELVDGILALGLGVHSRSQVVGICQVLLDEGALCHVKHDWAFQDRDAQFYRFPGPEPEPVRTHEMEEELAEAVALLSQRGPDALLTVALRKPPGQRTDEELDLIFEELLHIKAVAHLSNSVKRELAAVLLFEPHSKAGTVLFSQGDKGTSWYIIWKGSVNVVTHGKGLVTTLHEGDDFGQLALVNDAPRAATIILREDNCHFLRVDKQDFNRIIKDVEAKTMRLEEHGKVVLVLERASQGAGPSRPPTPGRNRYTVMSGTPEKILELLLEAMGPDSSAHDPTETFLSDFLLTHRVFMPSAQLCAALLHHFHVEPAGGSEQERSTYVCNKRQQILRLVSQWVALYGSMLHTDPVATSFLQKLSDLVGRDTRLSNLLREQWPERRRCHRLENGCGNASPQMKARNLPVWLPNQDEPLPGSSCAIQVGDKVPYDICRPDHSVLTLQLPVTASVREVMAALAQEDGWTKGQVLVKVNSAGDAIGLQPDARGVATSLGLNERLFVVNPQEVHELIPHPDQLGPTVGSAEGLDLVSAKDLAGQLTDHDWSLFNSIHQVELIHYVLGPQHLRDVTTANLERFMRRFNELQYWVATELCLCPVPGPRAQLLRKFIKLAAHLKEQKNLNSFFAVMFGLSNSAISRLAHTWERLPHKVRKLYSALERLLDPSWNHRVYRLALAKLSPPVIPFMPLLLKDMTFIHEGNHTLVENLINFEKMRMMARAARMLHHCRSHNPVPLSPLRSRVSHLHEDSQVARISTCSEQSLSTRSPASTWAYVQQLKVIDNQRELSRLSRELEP

Compound | Potency | activity change, negative = inhibition
CCc1ccc(NC(=S)Nc2ccc3cn[nH]c3c2)cc1 | inconclusive [inhibitor, partial curve] | 
CCCCCCCCN1C(=O)[C@H](CC(=O)N2CCN(C(=O)C3CC3)CC2)C[C@@]2(C(=O)OC)CC(C)(C)CC=C12 | inconclusive [inhibitor, partial curve] | 
CC(C)N(Cc1ccccc1)C(=O)C1CCCN(c2ncnc3c2nc2n3CCCCC2)C1 (centres undefined) |  | inactive: -6.9%
COC(=O)c1c(NC(=O)CC2SC(N)=NC2=O)sc2c1CCC(C)C2 (centres undefined) | inconclusive [inhibitor, partial curve] | 
COc1ccc(C2CC(=O)c3cnc(N4CCN(Cc5ccccc5)CC4)nc3C2)cc1 (centres undefined) | inconclusive [inhibitor, partial curve] | 
CN1C(=O)/C(=C2/C=Cc3ccccc3N2CCCS(=O)(=O)O)SC1=S | inconclusive [inhibitor, partial curve] | 
CCN(CC(=O)Nc1ccc(NC(C)=O)cc1)C(=O)c1c(C)nn(Cc2ccc(C)cc2)c1Cl |  | inactive: -0.742%
NNC(=O)c1cccc(COCC(F)(F)C(F)F)c1 | inconclusive [inhibitor, full curve, poor fit] | 
CCOc1ccc(S(=O)(=O)NC(C)(C)C)cc1-c1nc2c(C(C)(C)C)nn(C)c2c(=O)[nH]1 | inconclusive [inhibitor, partial curve, poor fit] | 
Cc1c(OC(C)C(=O)NC(Cc2c[nH]c3ccc(O)cc23)C(=O)O)ccc2c1oc(=O)c1ccccc12 (centres undefined) | inconclusive [inhibitor, partial curve] | 
O=C(COc1ccc(Cl)cc1Cl)Nc1cccnc1 | inconclusive [inhibitor, partial curve, poor fit] | 
CCOC(=O)C1=C(C)N=c2s/c(=C\c3ccc(OCC(=O)O)cc3)c(=O)n2C1c1ccc(Cl)cc1 (centres undefined) | inconclusive [inhibitor, single point] | 
O=C(Nc1ccc(N=Nc2ccccc2)c(NC(=O)C2CCCO2)c1)C1CCCO1 (centres undefined) | inconclusive [inhibitor, single point] | 
Cn1c(C(=O)N2CCCC(C(=O)N3CCN(C(=O)c4ccco4)CC3)C2)cc2sccc21 (centres undefined) | inconclusive [inhibitor, single point] | 
COc1cc(C2c3c([nH]c(=O)[nH]c3=O)Nc3ccc4ccccc4c32)ccc1O (centres undefined) | inconclusive [inhibitor, single point] | 
CN(C(=O)c1cc(-n2cnnc2)ccc1Cl)c1ccccc1 | inconclusive [inhibitor, partial curve, poor fit] | 
CC1CC(C)(C)NC(=S)N1CCCC(=O)Nc1ccc(Br)cc1 (centres undefined) | inconclusive [inhibitor, full curve] | 
COCCCNC(=O)c1c[nH]c2ccc(S(=O)(=O)N3CCC(C)CC3)cc2c1=O |  | inactive: 15.2%
CC(C)(C)c1ccccc1NC(=O)Nc1nc(C(N)Cc2ccc(F)cc2)cs1 (centres undefined) |  | inactive: 0.389%
CCOc1ccc(S(=O)(=O)Nc2cc(SCC(=O)O)c(O)c3ccccc23)cc1 | active: 89.1 µM | 
COc1ccccc1CC(=O)NCCc1ccccc1 | inconclusive [inhibitor, single point] | 
O=C(CSc1ccc(-c2ccc(Br)cc2)nn1)N1CCOCC1 | inconclusive [inhibitor, full curve] | 

Compound | Potency | activity change, negative = inhibition
O=C(COc1ccccc1)N/N=C/c1sc(=O)n(Cc2cccc(C(=O)O)c2)c1Cl | inconclusive [inhibitor, partial curve] | 
CC1(C)CC2(CC(c3ccccc3F)c3cc(Cl)c(O)cc3O2)NC(=S)N1 (centres undefined) | inconclusive [inhibitor, partial curve] | 
Cc1cccn2c(=O)c3cc(C#N)c(=N)n(CCCN4CCOCC4)c3nc12 |  | inactive: 10.5%
CC(=O)Nc1ccc(OC(=O)c2ccc(Br)c([N+](=O)[O-])c2)cc1 | inconclusive [inhibitor, full curve, poor fit] | 
COCCNC(=S)N(CCO)Cc1cc2cc3c(cc2[nH]c1=O)OCO3 | inconclusive [inhibitor, single point] | 
Cc1cc(-n2c(SCC(=O)NCCC3=CCCCC3)nc3n[nH]c(C)c3c2=N)ccc1Cl | inconclusive [inhibitor, partial curve] | 
Cc1cccc(N(CC(=O)NCc2ccccc2)C(=O)CCC(=O)Nc2nccs2)c1 | inconclusive [inhibitor, partial curve] | 
Cn1c(C(=O)NCCN2CCN(Cc3ccccc3)CC2)cc2c(=O)n(C)c3ccccc3c21 | inconclusive [inhibitor, partial curve, poor fit] | 
CCOC(=O)[C@]12CCCC=C1N(CCC1=CCCCC1)C(=O)[C@H](CC(=O)N1CCOCC1)C2 |  | inactive: -4.03%
Cc1ccc([C@H]2C(C(=O)O)=CC[C@@H](c3ccc(Cl)cc3)N2S(=O)(=O)c2ccc(C)cc2)cc1 | inconclusive [inhibitor, partial curve] | 
O=C1Nc2ccccc2C1=Nc1ccc(S(=O)(=O)Nc2nccs2)cc1 | inconclusive [inhibitor, single point] | 
Cc1cccc(C(=O)OCC(=O)Nc2ccc(F)cc2)c1 | inconclusive [inhibitor, partial curve] | 
COc1ccc(NS(=O)(=O)c2cccc(C(=O)N/N=C/c3ccc(O)cc3)c2)cc1 | inconclusive [inhibitor, single point] | 
Nc1ccc2c(c1)[nH]c(=O)c1cc(N)ccc12 |  | inactive: -2.48%
CCCc1sc(N)nc1-c1ccc(C)cc1 | inconclusive [inhibitor, partial curve] | 
Cn1cccc1/C=C1\SC(=S)N(NC(=O)c2ccccc2O)C1=O | inconclusive [inhibitor, full curve] | 
COc1cccc(-c2nn(Cc3ccccc3)cc2CO)c1 |  | inactive: 4.69%
CS(=O)(=O)C1=NSC2=NC(=O)/C(=C\c3cccn3-c3ccc(Cl)cc3)C(=N)N21 | active: 35.5 µM | 
CSCCNC(=O)c1ccc2nc(C3CCCCC3)oc2c1 | inconclusive [inhibitor, single point] | 
O=C(N/N=C/c1cccc(O)c1)c1ccccc1O |  | inactive: -25.9%
Cn1c(=O)c2c([nH]c(OCc3ccc(Cl)cc3Cl)[n+]2Cc2ccc(F)cc2)n(C)c1=O | inconclusive [inhibitor, full curve, poor fit] | 
Cc1n[nH]c(=S)n1-c1ccccc1 | inconclusive [inhibitor, partial curve] | 

Compound | Potency | activity change, negative = inhibition
CS(=O)(=O)N1CCN(C(=O)c2cc(-c3cccnc3)nc3ccc(Br)cc23)CC1 | inconclusive [inhibitor, partial curve, poor fit] | 
CCOC(=O)c1sc2nc(CSc3ccccc3)nc(N3CCC(C(N)=O)CC3)c2c1C | inconclusive [inhibitor, partial curve, poor fit] | 
COc1ccc2[nH]cc(CCNS(=O)(=O)c3ccc(F)cc3)c2c1 | inconclusive [inhibitor, full curve, poor fit] | 
COc1cc(NC(=O)c2ccc3c(SCC(=O)O)c4c(nc3c2)CCC4)cc(OC)c1OC |  | inactive: -28.3%
CCOC1CCCc2oc(-c3ccc(OC)cc3)c(C(=O)NCCCCO)c21 (centres undefined) | inconclusive [inhibitor, single point] | 
CCn1c(=O)n(CC)c2cc(S(=O)(=O)Nc3c(C)cccc3C)ccc21 | inconclusive [inhibitor, single point] | 
COc1ccccc1-c1ccc2c(c1)C(C)(Cc1cc(Cl)ccc1C(F)(F)F)C(=O)N2 (centres undefined) | inconclusive [inhibitor, partial curve, poor fit] | 
COC(=O)c1ccccc1CSc1nsc(/C=C/N(C)C)c1C#N | inconclusive [inhibitor, single point] | 
CN(C)c1ccc(-c2csc(C(O)c3ccc(F)c(F)c3)n2)cc1 (centres undefined) |  | inactive: -6.41%
COC(=O)C(=O)C1CCc2c(Cl)cc(OC)c(OC)c2C1=O (centres undefined) |  | inactive: -1.75%
CC(=O)Nc1cccc(NC(=O)c2ccc(COc3ccccc3)cc2)c1 |  | inactive: -2.9%
CN(CC(=O)Nc1sc2c(c1C#N)CCCCC2)Cc1nc2ccccc2c(=O)[nH]1 | inconclusive [inhibitor, partial curve] | 
c1ccc(-c2ccc3ncccc3n2)cc1 |  | inactive: -7.47%
CCN(CCCNC(=O)c1ccc2c(c1)NC(=O)CN2C)c1cccc(C)c1 | inconclusive [inhibitor, single point] | 
COc1ccc(NC(=O)CSc2[nH]c(=O)cc(C)c2C#N)cc1OC | inconclusive [inhibitor, single point] | 
CCOc1ccc(/C=C2/SC(=S)N(CCC(=O)Nc3ccc(C(=O)O)cc3)C2=O)cc1 |  | inactive: 0.143%
Cc1ccc(NC(=O)CN2C(=O)S/C(=C/c3ccc(O)c([N+](=O)[O-])c3)C2=O)cc1C | active: 44.7 µM | 
Cc1nc2ccc(NS(=O)(=O)c3ccc(F)c(F)c3)cc2s1 | inconclusive [inhibitor, full curve, poor fit] | 
O=C(NCCc1ccc2c(c1)OCCO2)c1ccccc1F | inconclusive [inhibitor, full curve, poor fit] | 
COc1ccc(N2CCN(C(=O)c3ccc(-n4nc(C)cc4C)cc3)CC2)cc1 | inconclusive [inhibitor, single point] | 
